Assay results published in publication PMC10017685 (Nature Communications, 2023).
Converted amounts (≈) assume the structure as drawn. Read-outs that look alike come from different tables or passages of the source.

Assays:
S. aureus ATCC 33591 = format: cell-based, Staphylococcus aureus
Protocol: (§1) Fresh cultures were used in antimicrobial assay. […] Moreover MBC was evaluated. […] All experiments were conducted in triplicate.

E. coli ATCC 25922 = format: cell-based, Escherichia coli
Protocol: as §1

E. coli ATCC 43827 = format: cell-based, Escherichia coli
[1] = tested on: A. baumannii ATCC BAA 1605; format: cell-based, Acinetobacter baumannii; conditions: triplicate; for A. baumannii ATCC BAA 1605 MIC: second experimental round, broth microdilution (CLSI), Mueller-Hinton Broth, 0.5 × 10^5 CFU/mL, 1-[…], 18 h at 37 °C; for A. baumannii ATCC BAA 1605 MBC: second round, MIC well and two higher concentrations seeded on agar plates, no visible colonies
Protocol: as §1

P. aeruginosa ATCC 9027 = format: cell-based, Pseudomonas aeruginosa; conditions: triplicate; for P. aeruginosa ATCC 9027 MIC: second experimental round, broth microdilution (CLSI), Mueller-Hinton Broth, 0.5 × 10^5 CFU/mL, 1-[…], 18 h at 37 °C; for P. aeruginosa ATCC 9027 MBC: second round, MIC well and two higher concentrations seeded on agar plates, no visible colonies
Protocol: as §1

Sheep red blood cells = experiment: Hemolysis assay (HC50); format: cell-based; conditions: for HC50 (µM/ml): sheep erythrocytes, recalculated from μg/mL values, estimated as in https://pubmed.ncbi.nlm.nih.gov/29307075/; for HC50: sheep red blood cells 4% (v/v) in PBS, peptides 1-[…], 60 min at 37 °C, hemoglobin release at 590 nm, 1% Triton-X 100 = 100% hemolysis, triplicate, HC50 by ic50.tk
Protocol: The hemolysis assay was conducted according to the procedure described previously. Sheep red blood cells (Defibrillated Sheep Blood, Graso, Poland) were used. […] Then the solution of RBCs was added to each well (100 μL with a 4% concentration of erythrocytes (v/v). The control wells for 0 and 100% hemolysis were also prepared: RBCs suspended in PBS and 1% of Triton-X 100, respectively. After that the plates were incubated for 60 min at 37 °C and then centrifuged at 800 × g for 10 min at 4 °C (Sorvall ST 16R Centrifuge, Thermo Scientific). The supernatant was carefully […] to new microtiter plates and the release of hemoglobin was measured at 590 nm (Multiskan™ GO Microplate Spectrophotometer, Thermo Scientific). Hemolysis for each concentration was calculated as the percentage of control with 100% hemolysis. All experiments were conducted in triplicate. The final values of HC50 were computed using ic50.tk tool.

[2] = second experimental round, broth microdilution (CLSI), Mueller-Hinton Broth, 0.5 × 10^5 CFU/mL, 1-[…], 18 h at 37 °C, triplicate
[3] = second round, MIC well and two higher concentrations seeded on agar plates, no visible colonies, triplicate
[4] = Supplementary Data 5F, analogue generation without additional preselection
[5] = first experimental round, broth microdilution (CLSI), Mueller-Hinton Broth, 0.5 × 10^5 CFU/mL, 1-[…], 18 h at 37 °C, triplicate

SMILES	S. aureus ATCC 33591 MIC (S. aureus ATCC 33591; [2])	S. aureus ATCC 33591 MBC (S. aureus ATCC 33591; [3])	E. coli ATCC 25922 MIC (E. coli ATCC 25922; [2])	E. coli ATCC 25922 MBC (E. coli ATCC 25922; [3])	E. coli ATCC 43827 MIC (E. coli ATCC 43827; [2])	E. coli ATCC 43827 MBC (E. coli ATCC 43827; [3])	A. baumannii ATCC BAA 1605 MIC [1]	A. baumannii ATCC BAA 1605 MBC [1]	P. aeruginosa ATCC 9027 MIC (P. aeruginosa ATCC 9027)	P. aeruginosa ATCC 9027 MBC (P. aeruginosa ATCC 9027)	HC50 (µM/ml) (Sheep red blood cells)	HC50 (Sheep red blood cells)	S. aureus ATCC 33591 MBC (S. aureus ATCC 33591; Supplementary Data 5D/5E)	S. aureus ATCC 33591 MIC (S. aureus ATCC 33591; Supplementary Data 5D/5E)	E. coli ATCC 25922 MBC (E. coli ATCC 25922; Supplementary Data 5D/5E)	E. coli ATCC 25922 MIC (E. coli ATCC 25922; Supplementary Data 5D/5E)	E. coli ATCC 43827 MBC (E. coli ATCC 43827; Supplementary Data 5D/5E)	E. coli ATCC 43827 MIC (E. coli ATCC 43827; Supplementary Data 5D/5E)	other results
CC[C@H](C)[C@H](NC(=O)[C@H](Cc1ccccc1)NC(=O)[C@H](CCCCN)NC(=O)[C@H](CC(N)=O)NC(=O)[C@H](CC(C)C)NC(=O)[C@H](CCCNC(=N)N)NC(=O)CN)C(=O)N[C@@H](CCCCN)C(=O)N[C@@H](CCCCN)C(=O)N[C@@H](C)C(=O)N[C@@H](Cc1c[nH]c2ccccc12)C(=O)N[C@@H](CCCNC(=N)N)C(=O)N[C@@H](CCCCN)C(=O)N[C@@H](Cc1ccccc1)C(=O)N[C@H](C(=O)N[C@@H](CC(C)C)C(=O)N[C@@H](CCCCN)C(=O)N[C@@H](Cc1ccccc1)C(=O)N[C@@H](C)C(=O)N[C@@H](CCCCN)C(N)=O)C(C)C [Piomiren]	32 µg/mL	64 µg/mL	8 µg/mL	16 µg/mL	8 µg/mL	8 µg/mL	4 µg/mL	4 µg/mL	16 µg/mL	32 µg/mL	>146 µM/ml	>512 µg/mL	–	–	–	–	–	–	–
CC[C@H](C)[C@H](N)C(=O)N[C@@H](CC(C)C)C(=O)N[C@@H](CCCNC(=N)N)C(=O)N[C@@H](Cc1c[nH]c2ccccc12)C(=O)N[C@H](C(=O)N[C@@H](Cc1c[nH]c2ccccc12)C(=O)N[C@@H](CCCCN)C(=O)N[C@H](C(=O)N[C@@H](Cc1c[nH]c2ccccc12)C(=O)N[C@@H](CCCNC(=N)N)C(=O)N[C@@H](CCCNC(=N)N)C(=O)N[C@@H](Cc1c[nH]c2ccccc12)C(N)=O)[C@@H](C)CC)[C@@H](C)CC [Alacemycin]	–	16 µg/mL	32 µg/mL	32 µg/mL	16 µg/mL	16 µg/mL	8 µg/mL	16 µg/mL	32 µg/mL	64 µg/mL	>215 µM/ml	>512 µg/mL	16 µg/mL	8 µg/mL	32 µg/mL	32 µg/mL	16 µg/mL	16 µg/mL	–
CC[C@H](C)[C@H](N)C(=O)NCC(=O)N[C@@H](CCCCN)C(=O)N[C@@H](CC(C)C)C(=O)N[C@@H](Cc1ccccc1)C(=O)N[C@@H](CCCCN)C(=O)N[C@@H](CCCNC(=N)N)C(=O)N[C@H](C(=O)N[C@@H](Cc1c[nH]cn1)C(=O)N[C@@H](CCC(=O)O)C(=O)N[C@@H](CCCNC(=N)N)C(=O)N[C@H](C(=O)N[C@@H](CCCCN)C(=O)N[C@@H](CCCNC(=N)N)C(=O)N[C@@H](Cc1ccccc1)C(=O)N[C@@H](CC(C)C)C(=O)N[C@@H](CCCNC(=N)N)C(=O)N[C@@H](CO)C(=O)N[C@@H](Cc1ccccc1)C(=O)N[C@@H](CC(C)C)C(=O)N[C@@H](CCCNC(=N)N)C(=O)N[C@H](C(=O)N[C@@H](CC(C)C)C(=O)N[C@@H](CCCNC(=N)N)C(N)=O)[C@@H](C)CC)[C@@H](C)CC)[C@@H](C)CC [OP-145-TII5]	64 µg/mL	64 µg/mL	64 µg/mL	64 µg/mL	64 µg/mL	64 µg/mL	64 µg/mL	64 µg/mL	128 µg/mL	128 µg/mL	>118 µM/ml	>512 µg/mL	–	–	–	–	–	–	S. aureus ATCC 33591 MBC (S. aureus ATCC 33591): 64 µg/mL; E. coli ATCC 25922 MBC (E. coli ATCC 25922): 64 µg/mL; E. coli ATCC 25922 MIC (E. coli ATCC 25922): 64 µg/mL; E. coli ATCC 43827 MBC (E. coli ATCC 43827): 64 µg/mL; E. coli ATCC 43827 MIC (E. coli ATCC 43827): 64 µg/mL
CC[C@H](C)[C@H](NC(=O)[C@H](CCCNC(=N)N)NC(=O)[C@H](Cc1c[nH]c2ccccc12)NC(=O)[C@H](Cc1ccccc1)NC(=O)[C@H](CCCNC(=N)N)NC(=O)[C@H](CCCNC(=N)N)NC(=O)[C@H](CC(C)C)NC(=O)[C@@H](N)Cc1ccccc1)C(=O)N[C@@H](Cc1c[nH]c2ccccc12)C(=O)N[C@@H](CCCNC(=N)N)C(=O)N[C@@H](CCCNC(=N)N)C(N)=O [Gedanan]	–	16 µg/mL	32 µg/mL	32 µg/mL	32 µg/mL	32 µg/mL	32 µg/mL	64 µg/mL	16 µg/mL	32 µg/mL	216 µM/ml	512 µg/mL	16 µg/mL	8 µg/mL	32 µg/mL	32 µg/mL	32 µg/mL	32 µg/mL	–
CC[C@H](C)[C@H](NC(=O)[C@H](Cc1ccccc1)NC(=O)[C@H](CCCCN)NC(=O)[C@H](CC(C)C)NC(=O)[C@H](CC(C)C)NC(=O)[C@H](CCCNC(=N)N)NC(=O)CN)C(=O)N[C@@H](CCCCN)C(=O)N[C@@H](CCCCN)C(=O)N[C@@H](C)C(=O)N[C@@H](CCC(N)=O)C(=O)N[C@@H](CCCNC(=N)N)C(=O)N[C@@H](CCCCN)C(=O)N[C@@H](Cc1ccccc1)C(=O)N[C@H](C(=O)N[C@@H](CCC(=O)O)C(=O)N[C@@H](CCCCN)C(=O)N[C@@H](Cc1ccccc1)C(=O)N[C@@H](C)C(=O)N[C@@H](CCCCN)C(N)=O)C(C)C [Rudyxin]	512 µg/mL	>512 µg/mL	128 µg/mL	128 µg/mL	4 µg/mL	8 µg/mL	8 µg/mL	16 µg/mL	32 µg/mL	64 µg/mL	>150 µM/ml	>512 µg/mL	–	–	–	–	–	–	–
CC[C@H](C)[C@H](NC(=O)[C@H](CCCCN)NC(=O)[C@H](CCCCN)NC(=O)[C@H](CC(C)C)NC(=O)[C@@H](NC(=O)[C@H](CCCCN)NC(=O)[C@@H](NC(=O)[C@H](C)NC(=O)[C@@H](NC(=O)[C@H](Cc1c[nH]cn1)NC(=O)CNC(=O)[C@H](C)NC(=O)[C@H](CC(C)C)NC(=O)[C@H](CC(=O)O)NC(=O)[C@H](CCCCN)NC(=O)[C@H](C)NC(=O)[C@H](C)NC(=O)CNC(=O)[C@H](CCCCN)NC(=O)[C@H](CC(C)C)NC(=O)[C@H](CC(C)C)NC(=O)[C@H](CCC(=O)O)NC(=O)[C@H](CC(C)C)NC(=O)[C@@H](NC(=O)CN)C(C)C)C(C)C)[C@@H](C)O)C(C)C)C(N)=O [Syphaxin-TI4]	>512 µg/mL	>512 µg/mL	256 µg/mL	256 µg/mL	512 µg/mL	512 µg/mL	64 µg/mL	128 µg/mL	>512 µg/mL	>512 µg/mL	152 µM/ml	>512 µg/mL	–	–	–	–	–	–	–
CC[C@H](C)[C@H](NC(=O)CN)C(=O)NCC(=O)N[C@@H](CCCCN)C(=O)N[C@@H](Cc1ccccc1)C(=O)N[C@@H](CC(C)C)C(=O)N[C@@H](CCCCN)C(=O)N[C@@H](Cc1ccccc1)C(=O)N[C@@H](C)C(=O)N[C@@H](CC(C)C)C(=O)N[C@@H](CCCCN)C(=O)N[C@@H](CCCCN)C(=O)NCC(=O)N[C@@H](CC(C)C)C(=O)NCC(=O)N[C@@H](CC(C)C)C(=O)N[C@H](C(=O)N[C@@H](CC(C)C)C(=O)N[C@@H](CCCCN)C(=O)N[C@@H](Cc1ccccc1)C(=O)N[C@@H](CCCCN)C(=O)N[C@@H](CC(C)C)C(N)=O)C(C)C [Hydraganan-2]	32 µg/mL	32 µg/mL	128 µg/mL	128 µg/mL	128 µg/mL	128 µg/mL	32 µg/mL	32 µg/mL	128 µg/mL	256 µg/mL	–	>512 µg/mL	32 µg/mL	32 µg/mL	128 µg/mL	128 µg/mL	128 µg/mL	128 µg/mL	E. coli ATCC 25922 MIC (E. coli ATCC 25922; [4]): 16 µg/mL; MIC E. coli ATCC 25922 (E. coli ATCC 25922; [5]): 16 µg/mL (≈ 6.62 µM); E. coli ATCC 43827 MIC (E. coli ATCC 43827; [4]): 16 µg/mL; MIC E. coli ATCC 43927 (E. coli ATCC 43827; [5]): 16 µg/mL (≈ 6.62 µM)
